According to PubChem BioAssay AID1508624 (National Center for Advancing Translational Sciences (NCATS), 2021):
Hit rate of the full screen: of about 48,000 compounds, about 120 (0.25%) were called active. Not shown: some 4% with an inconclusive outcome. Calls come from the whole dose curve; as a rule, active = well fitted activation curve with a large enough effect; inconclusive = small, poorly fitted or top-dose-only effect, or another doubt; inactive = no such curve, though single readings can be large or run the other way. The list shows a part of the results.

experiment: Primary qHTS for Identification of Small Molecule Activators of Huntingtin-Antisense Promoter Activity; conditions: HEK293 HTT-AS promoter firefly luciferase reporter, 24 h; series mostly up to 57.5 µM; activity change, positive = activation: at the top concentration; note: nearly all actives have a fitted effect of over 55% in size
How it was run: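 Firefly luciferase signal from promoter-reporter HEK293 cells was scaled between vehicle (0%) and zero RLU (-100%). Compounds were tested at final concentrations of up to 57.5 uM over 24 h at 37 degrees C. PTC124 at 50 uM final served as control inhibitor.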

Activity change, positive = activation, inactive:
CCOc1ccccc1NC(=O)CCS(=O)(=O)c1ccc(OC)cc1 -3.18%
CCc1ccc(NC(=O)c2cc(CN3CCOCC3)on2)cc1 24.7%
O=C(CCn1c(=O)c2ccccc2n(Cc2ccc(Cl)cc2)c1=O)NCc1ccc2c(c1)OCO2 -13.7%
Cc1cccc(-n2ccnc2SCC(=O)Nc2cc(C(F)(F)F)ccc2Cl)c1 -36.4%
CC(C)CCn1c(=O)c2sccc2n2c(CCCC(=O)Nc3ccc(F)c(Cl)c3)nnc12 -35.8%
O=C(NCc1ccc(F)cc1Cl)c1ccc(CSCc2ccccc2Cl)o1 -4.7%
Cc1ccc(NC(=O)c2cc(-c3cccs3)nc3ccccc23)c(C)c1 9.38%
Cc1ccc(N2CCN(C(=O)Nc3cn(CC(C)C)c(=O)c4ccccc34)CC2)c(C)c1 -6.66%
CC(C)Oc1ccc(CNC(=O)c2cnc3sc(N4CCCCCC4)nn3c2=O)cc1 -3.7%
C[C@]12CCC3c4ccc(O)cc4CCC3C1CCC2=O (some centres undefined) -22.8%
COc1ccc2c3n(c(=NC(=O)c4cccnc4)nc2c1OC)CCN3 -28.6%
CCOc1ccc(/C=C/c2nc(C#N)c(N3CCCCCC3)o2)cc1 -5.39%
Cc1ccc(CNC(=O)c2ccc(CSCc3c(F)cccc3Cl)o2)cc1 -9.18%
COc1ccccc1NC(=O)Cn1c(=O)n(Cc2nc(C)no2)c(=O)c2cc3c(cc21)OCO3 -4.07%
CCN(CC)CCNC(=O)c1c(C)[nH]c(C=C2C(=O)Nc3ccc(F)cc32)c1C -31.3% [at 116 µM, percent change from vehicle, -100% = no light]
Cc1cc(C)n2nc(CNS(=O)(=O)c3ccc(F)cc3)nc2n1 -3.38%
COc1ccccc1NC(=O)N1CCOc2ccccc21 -14.1%
CCCN(CCC)CCNC(=O)Cn1cnc2sc(C)c(S(=O)(=O)N3CCN(c4ccccc4OC)CC3)c2c1=O 22.4%
CCn1c(C(=O)NCc2ccccc2)cc2sc(Cl)cc21 -48.1%
COc1cccc(CNC(=O)c2ccc(CN3CC(=O)N4CCCCC4C3=O)cc2)c1 (centres undefined) -14.6%
COc1ccccc1/C=C(\C#N)C(=O)NCC1CCCO1 (centres undefined) -7.5%
COC(=O)c1c(SC)nc2ccccc2c1OCc1cc(C)ccc1C -15.2%
Cc1ccc(CNC(=O)c2ccc(NC(=O)c3nsc4ccccc34)cc2)cc1 -37.5%
CCCOc1ccc(CNC(=O)c2cc3oc4ccccc4c3n2C)cc1 -20.6%
CCN(CC)CCOCCOC(=O)C1(c2ccccc2)CCCC1 -9.13%
O=C(Nc1ccc2nc(SCC(=O)N3CCc4ccccc43)sc2c1)c1ccc(Cl)cc1 -14.7%
O=C(CSc1nc(-c2cccs2)cc(C(F)(F)F)n1)Nc1ccccc1Cl -28.5%
Cc1ccc(NC(=O)CN2C(=O)C(c3ccc(F)cc3)=NC2(C)C)c(C)c1 -13.9%
Cc1cccc(C(=O)Nc2sc3c(c2C(=O)Nc2ccccc2)CCC3)c1 -12.5%
